# Patent US20240383953A1, “NOVEL NAN[…] NANOG PRION-LIKE REPEATS” (BAYLOR COLLEGE OF MEDICINE, priority 2021, published 2024)
# At least one peptide structure holds a part that was inferred or is arguable (an end, a ring closure or a residue). Residues, ends and D or L forms follow the SMILES beside them.
# Columns and labels:
# [1] = WR peptide aggregation kinetics by ThT fluorescence; assay type: physicochemical; settings: for amyloid ThT fluorescence / time to maximal ThT fluorescence: 0.2 mg/mL
# Procedure: FIGS. 7A-7H provide data and illustrations related to the fibrillation propensities of NANOG WR-derived peptides. FIG. 7A illustrates NANOG domain organization and the human and mouse NANOG WR-derived peptides used in Example 2. […] Right panels show aggregation kinetics for peptides 1-3 w (top) and 1-4 w (bottom) after 1 min equilibration. Similar results were obtained from two independent experiments. […] Similar results were obtained from two independent experiments. […] Similar results were obtained from two independent experiments. […] Similar results were obtained from two independent preparations.
# Amino acids of the synthesized peptides were classified into aromatic, polar, charged and structure breakers (FIG. 7B). Applicant observed a striking degree of correlation between amino acid type distribution, and the peptide's solubilities and aggregation propensities, as monitored by Thioflavin T (ThT, amyloid binding dye) aggregation kinetics assay (FIGS. 7B-7D). Formation of β-sheet fibrils were confirmed by CD spectroscopy and Transmission Electron Microscopy. Hydrophobic/aromatic residues as well as polar residues such as Gln and Asn are commonly found in amyloid or prion-like domains. On the other hand, charged and ‘structure breaker’ residues such as Gly and Pro contribute to the peptide's higher solubility. […] Aggregation kinetics was rapid; 1-4w reached maximal ThT fluorescence within 2-3 min and 1-3w ˜20 min (FIG. 7D).
# [2] = test system: dsDNA GATA6-AF488/GATA6-AF647; test: fEMSA with dsDNA; assay type: binding; settings: EMSA, GATA6-AF647/AF488 5 nM each
# Procedure: (§1) Basic residues, 3 Arg and 2 Lys, were incorporated for nucleic acid recognition. […] Similar results were obtained from two independent experiments. FIG. 8C (left panels) show photon bursts distribution of dsDNAs alone (GATA6-AF488 and GATA6-AF647; top) or with 7.5 μM (0.03 mg/mL) 1-4wRK peptide (bottom). Middle panels of FIG. 8C show FCCS curves for corresponding photon fluctuations shown in the left panels. […] Similar results were obtained from three independent experiments. […] Similar results were obtained from three independent experiments. […] Error bars were calculated from three independent measurements. […] Similar results were obtained from two independent experiments.
# (§2) ThT binding to amyloid β-sheet emits maximally at ˜490 nm. Similar results were obtained from 2 independent experiments. […] Similar results were obtained from 2 independent experiments.
# Applicant observed nucleic acid interactions by fluorescence electrophoretic mobility shift assays (fEMSA). […] Moreover, the 1-4wRK peptide was also potent in recognizing single stranded DNA (ssDNA (TG)6) and RNA (ssRNA (UUAGGG)4-AF488/AF594).
# (§3) By EMSA, almost all DNAs were bound at […] or 0.03 mg/mL 1-3wRRK. […] This was further corroborated by fluorescence polarization measurements.
# [3] = test system: GATA6-AF488 and GATA6-AF647; test: FCCS DNA bridging by peptides; assay type: binding
# Procedure: as §1
# ThT binding to amyloid β-sheet emits maximally at ˜490 nm. Similar results were obtained from 2 independent experiments. […]
# Applicant also tested the minipeptides' ability to bring together independent DNA molecules in solution. Using Fluorescence Cross-Correlation Spectroscopy (FCCS), Applicant observed an absence of cross-correlation between differentially fluorescently labeled DNAs (GATA6-AF488 and GATA6-AF647) without the peptide. […]
# The significant 1-3wRK DNA-bridging competency was further confirmed by FCCS titration data and burst analysis, where Applicant observed cross-correlation even at ˜30 nM 1-3wRRK. […] Applicant demarcated the LLPS regimes using turbidity assay (UV absorbance at 350 nm; FIG. 8J). […]
# GATA6 dsDNA = test: Fluorescence polarization binding measurements; settings: Hill binding equation, mean±SD
# Source text: as §2
# Since 1-3wRRK became soluble and much less aggregation-prone on its own, Applicant determined if the WR repeat (steric zipper region) was affected by changes in physical properties and still contributed towards recognizing DNA. Applicant compared its DNA binding capability to TAT and 1-4wRK by EMSA and fluorescence polarization measurements (FIGS. 9G-9H). Applicant observed that 1-3wRRK binds DNA more effectively than 1-4wRK, mostly likely due to the extra basic residues (FIGS. 8B, 9G, and 9H).
# as §3
# HEK 293T cells = test: Cell entry and cargo delivery; assay type: cell-based
# [4] = Fibril formation of WR peptides; assay type: physicochemical; settings: longer incubation times
smiles,measurement,setting,value
C[C@@H](O)[C@H](NC(=O)[C@H](CO)NC(=O)[C@H](CC(N)=O)NC(=O)[C@H](CC(N)=O)NC(=O)[C@H](Cc1c[nH]c2ccccc12)NC(=O)[C@@H](NC(=O)[C@H](CCC(N)=O)NC(=O)[C@H](CC(N)=O)NC(=O)[C@H](CO)NC(=O)[C@@H](N)Cc1c[nH]c2ccccc12)[C@@H](C)O)C(=O)N[C@@H](CCCCN)C(=O)O [1-2w] (H-WSNQTWNNSTK-OH; N-terminus and C-terminus assumed),amyloid ThT fluorescence,[1],minimal amyloid-positive ThT fluorescence
C[C@@H](O)[C@H](NC(=O)[C@H](CCC(N)=O)NC(=O)[C@H](CC(N)=O)NC(=O)[C@H](CO)NC(=O)[C@H](Cc1c[nH]c2ccccc12)NC(=O)[C@@H](NC(=O)[C@H](CO)NC(=O)[C@H](CC(N)=O)NC(=O)[C@H](CC(N)=O)NC(=O)[C@H](Cc1c[nH]c2ccccc12)NC(=O)[C@@H](NC(=O)[C@H](CCC(N)=O)NC(=O)[C@H](CC(N)=O)NC(=O)[C@H](CO)NC(=O)[C@@H](N)Cc1c[nH]c2ccccc12)[C@@H](C)O)[C@@H](C)O)C(=O)N[C@@H](CCCNC(=N)N)C(=O)N[C@@H](CCCNC(=N)N)C(=O)N[C@@H](CCCNC(=N)N)C(=O)N[C@@H](CCCNC(=N)N)C(=O)N[C@@H](CCCNC(=N)N)C(=O)N[C@@H](CCCNC(=N)N)C(=O)N[C@@H](CCCCN)C(=O)N[C@@H](CCCCN)C(=O)N[C@@H](CS)C(=O)O [1-3wRRK] (H-WSNQTWNNSTWSNQTRRRRRRKKC-OH; N-terminus and C-terminus assumed),concentration at which almost all DNAs were bound,[2],60 nM
same,cross-correlation (DNA bridging),[3]; 0.9 μM peptides,large cross-correlation
same,lowest peptide concentration giving cross-correlation,[3]; FCCS titration and burst analysis,~30 nM
same,cooperativity n,GATA6 dsDNA,2.1±0.5
same,binding constant Ka,GATA6 dsDNA; n=3,180 ± 100 nM
same,"delivery of cargo into cells (12 bp ssDNA, ~4 kbp plasmid, β-galactosidase, lentivirus particles)",HEK 293T cells,could deliver
same,cell entry,HEK 293T cells; peptide on its own,readily entered
C[C@@H](O)[C@H](NC(=O)[C@H](CCC(N)=O)NC(=O)[C@H](CC(N)=O)NC(=O)[C@H](CO)NC(=O)[C@H](Cc1c[nH]c2ccccc12)NC(=O)[C@@H](NC(=O)[C@H](CO)NC(=O)[C@H](CC(N)=O)NC(=O)[C@H](CC(N)=O)NC(=O)[C@H](Cc1c[nH]c2ccccc12)NC(=O)[C@@H](NC(=O)[C@H](CCC(N)=O)NC(=O)[C@H](CC(N)=O)NC(=O)[C@H](CO)NC(=O)[C@@H](N)Cc1c[nH]c2ccccc12)[C@@H](C)O)[C@@H](C)O)C(=O)N[C@@H](CCCCN)C(=O)O [1-3w] (H-WSNQTWNNSTWSNQTK-OH; N-terminus and C-terminus assumed),amyloid ThT fluorescence,[1],positive for amyloid
same,time to maximal ThT fluorescence,[1],~20 min
CC[C@H](C)[C@H](NC(=O)[C@H](CC(N)=O)NC(=O)[C@H](CCC(N)=O)NC(=O)[C@@H](NC(=O)[C@H](CCC(N)=O)NC(=O)[C@H](CC(N)=O)NC(=O)[C@H](CO)NC(=O)[C@H](Cc1c[nH]c2ccccc12)NC(=O)[C@@H](NC(=O)[C@H](CO)NC(=O)[C@H](CC(N)=O)NC(=O)[C@H](CC(N)=O)NC(=O)[C@H](Cc1c[nH]c2ccccc12)NC(=O)[C@@H](NC(=O)[C@H](CCC(N)=O)NC(=O)[C@H](CC(N)=O)NC(=O)[C@H](CO)NC(=O)[C@@H](N)Cc1c[nH]c2ccccc12)[C@@H](C)O)[C@@H](C)O)[C@@H](C)O)C(=O)N[C@@H](CCC(N)=O)C(=O)N[C@@H](CO)C(=O)N[C@@H](Cc1c[nH]c2ccccc12)C(=O)N[C@@H](CO)C(=O)N[C@@H](CC(N)=O)C(=O)N[C@@H](Cc1c[nH]cn1)C(=O)N[C@@H](CO)C(=O)N[C@@H](CCCCN)C(=O)O [1-4w] (H-WSNQTWNNSTWSNQTQNIQSWSNHSK-OH; N-terminus and C-terminus assumed),amyloid ThT fluorescence,[1],positive for amyloid
same,time to maximal ThT fluorescence,[1],2 to 3 min
CC[C@H](C)[C@H](NC(=O)[C@H](CC(N)=O)NC(=O)[C@H](CCC(N)=O)NC(=O)[C@@H](NC(=O)[C@H](CCC(N)=O)NC(=O)[C@H](CC(N)=O)NC(=O)[C@H](CO)NC(=O)[C@H](C)NC(=O)[C@@H](NC(=O)[C@H](CO)NC(=O)[C@H](CC(N)=O)NC(=O)[C@H](CC(N)=O)NC(=O)[C@H](C)NC(=O)[C@@H](NC(=O)[C@H](CCC(N)=O)NC(=O)[C@H](CC(N)=O)NC(=O)[C@H](CO)NC(=O)[C@H](C)N)[C@@H](C)O)[C@@H](C)O)[C@@H](C)O)C(=O)N[C@@H](CCC(N)=O)C(=O)N[C@@H](CO)C(=O)N[C@@H](Cc1c[nH]c2ccccc12)C(=O)N[C@@H](CO)C(=O)N[C@@H](CC(N)=O)C(=O)N[C@@H](Cc1c[nH]cn1)C(=O)N[C@@H](CO)C(=O)N[C@@H](CCCCN)C(=O)O [1-4wa] (H-ASNQTANNSTASNQTQNIQSWSNHSK-OH; N-terminus and C-terminus assumed),delay of aggregation kinetics,[1],> 2 h
same,amyloid ThT fluorescence,[1],greater ThT amyloid-bound state
"C[C@@H](O)[C@H](NC(=O)[C@H](CCC(N)=O)NC(=O)[C@H](CC(N)=O)NC(=O)[C@H](CO)NC(=O)[C@@H](N)Cc1c[nH]c2ccccc12)C(=O)N[C@@H](CCCCN)C(=O)O [1w, WSNQTK] (H-WSNQTK-OH; N-terminus and C-terminus assumed)",amyloid ThT fluorescence,[1],minimal amyloid-positive ThT fluorescence
same,concentration at which fibrils form,[4],0.3 to 1 mg/mL
C[C@@H](O)[C@H](NC(=O)[C@H](CCC(N)=O)NC(=O)[C@H](CC(N)=O)NC(=O)[C@H](CC(N)=O)NC(=O)[C@H](Cc1c[nH]c2ccccc12)NC(=O)[C@@H](NC(=O)[C@@H]1CCCN1C(=O)[C@H](CC(N)=O)NC(=O)[C@@H](NC(=O)[C@H](Cc1c[nH]c2ccccc12)NC(=O)[C@@H](NC(=O)[C@H](CCC(N)=O)NC(=O)[C@H](CO)NC(=O)[C@H](CO)NC(=O)[C@H](Cc1c[nH]c2ccccc12)NC(=O)[C@@H](NC(=O)[C@@H]1CCCN1C(=O)[C@H](CC(N)=O)NC(=O)[C@@H](NC(=O)[C@H](Cc1c[nH]c2ccccc12)NC(=O)[C@@H](NC(=O)[C@H](CCC(N)=O)NC(=O)[C@H](CO)NC(=O)CNC(=O)[C@@H](N)Cc1c[nH]c2ccccc12)[C@@H](C)O)[C@@H](C)O)[C@@H](C)O)[C@@H](C)O)[C@@H](C)O)[C@@H](C)O)C(=O)N[C@@H](CCCCN)C(=O)O [m1-5w] (H-WGSQTWTNPTWSSQTWTNPTWNNQTK-OH; N-terminus and C-terminus assumed),aggregation kinetics,[1],slower aggregation kinetics
C[C@H](NC(=O)[C@H](CCC(N)=O)NC(=O)[C@H](CO)NC(=O)[C@H](CO)NC(=O)[C@H](Cc1c[nH]c2ccccc12)NC(=O)[C@@H](NC(=O)[C@@H]1CCCN1C(=O)[C@H](CC(N)=O)NC(=O)[C@@H](NC(=O)[C@@H](N)Cc1c[nH]c2ccccc12)[C@@H](C)O)[C@@H](C)O)C(=O)N[C@@H](Cc1c[nH]c2ccccc12)C(=O)N[C@H](C(=O)N[C@@H](C)C(=O)N[C@@H](CCC(N)=O)C(=O)N[C@@H](CO)C(=O)N[C@@H](Cc1c[nH]c2ccccc12)C(=O)N[C@@H](CC(N)=O)C(=O)NCC(=O)N[C@@H](CCC(N)=O)C(=O)N1CCC[C@H]1C(=O)N[C@@H](Cc1c[nH]c2ccccc12)C(=O)N[C@@H](CC(N)=O)C(=O)N[C@@H](C)C(=O)N[C@@H](C)C(=O)N1CCC[C@H]1C(=O)N[C@@H](CCCCN)C(=O)O)[C@@H](C)O [m6-10w] (H-WTNPTWSSQAWTAQSWNGQPWNAAPK-OH; N-terminus and C-terminus assumed),aggregation kinetics,[1],slower aggregation kinetics
